ChEMBL document CHEMBL1157539, “Thousands of chemical starting points for antimalarial lead identification” (Nature, 2010)
Whole data set: some 13,000 compounds, median “IFI” near 4, cut for the highest 2% near 17. The list shows a part of the results.

Experiment: GSK_TCMDC: Inhibition Frequency Index (IFI). The number of non-kinase HTS assays where a compound showed > 50 % inhibition, expressed as a percentage of the number of such assays in which the compound was tested (-0 is zero)
Assay type: functional

Row | Compound | IFI [%]
1 | N#Cc1cccc(CN(Cc2ccc(Cl)c(Cl)c2)S(=O)(=O)c2cccc([N+](=O)[O-])c2)c1 | 0.72
2 | COc1cccc(-n2ncc3c(N/N=C/c4ccc(CN(C)CCN(C)C)cc4)ncnc32)c1 | 10.1
3 | Nc1nccc2ccc(-c3ccc(Oc4ccccc4)cc3)cc12 | 20.7
4 | COC(=O)c1c(NC(=O)c2cccc(C(F)(F)F)c2)sc2c1CCN(Cc1ccccc1)C2 | 4.13
5 | Oc1ccc(-c2cncc(NCc3ccc(F)c(F)c3)c2)cc1 | 6.06
6 | Cc1cccc(Cn2nc(-c3ccccc3)c(N3CCCCC3)cc2=O)c1 | 1.28
7 | COc1ccc2nccc([C@@H](O)CN3CCC(NC(=O)c4ccc(C5(C(F)(F)F)N=N5)cc4)CC3)c2c1 | 2.9
8 | C=CCN1C(=O)C(=Cc2cc(Br)ccc2O)SC1=Nc1ccccc1 | 5
9 | CCN(CCCN1CCCCC1)c1cc(C)nc(Nc2ccc(C)cc2Br)n1 | 2.56
10 | COc1ccc2c(c1)CCN(CCN1CCC(CNC(=O)c3ccc(-c4ccc(C#N)cc4)cc3)CC1)C2 | 7.21
11 | O=c1cc(-c2ccc3ccccc3c2)[nH]c2ccccc12 | 1.82
12 | Cc1[nH]c(C)c(-c2ccc(CCc3ccc(C(F)(F)F)cc3)nc2)c(=O)c1Cl | 4.46
13 | Oc1cccc(Nc2ccnc3cc(-c4ccccn4)ccc23)c1 | 8.16
14 | COCCNCc1ncsc1-c1ccc2c(Nc3cc(O)c(Cl)cc3F)ccnc2c1 | 5.26
15 | CCN(CC)CCN(Cc1ccc(-c2ccc(C(F)(F)F)cc2)cc1)C(=O)Cn1c(CCc2cc(F)ccc2F)nc(=O)c2ccccc21 | 5.59
16 | COc1cc(Nc2ccnc3cc(-c4ccncc4)ccc23)cc(OC)c1OC | 3.68
17 | CCCCCN1CCC(NS(=O)(=O)c2cccc(C(=O)Nc3ccc(C(F)(F)F)cc3)c2)C1 (stereo unspecified) | 12.9
18 | CCN(CC)CCN1C(=O)c2oc3ccc(F)cc3c(=O)c2C1c1cccc(Cl)c1 (stereo unspecified) | 3.92
19 | COc1ccc2nccc([C@@H](O)CN3CCC(NCc4cc5cccc(O)c5c(=O)[nH]4)CC3)c2c1 | 0.73
20 | Cc1nc(C)c(-c2ccc(Oc3ccc(Cl)cc3Cl)cc2)c(O)c1Br | 1.52
21 | COc1cc(C2C(Oc3ccccc3)C(=O)N2Cc2ccc(F)cc2)cc(OC)c1OC (stereo unspecified) | 1.19
22 | c1ccc(-c2cc(NCCCCCCCCNc3cc(-c4ccccc4)nc4ccccc34)c3ccccc3n2)cc1 | 10
23 | NCc1ccc(Nc2nccc(Nc3ccc(-c4ccccc4)cc3)n2)cc1 | 13.3

Row | Compound | IFI [%]
24 | O=C(/C=C/c1ccc(Cl)c(Cl)c1)NCCCCCN1CCC(NC(=O)Nc2ccccc2Cl)CC1 | 7.28
25 | O=C(c1cccc(-c2noc(C(F)(F)F)n2)c1)N1CCN(c2nsc3ccccc23)CC1 | 2.94
26 | Cc1cccc2nc(-c3cccc(-c4cccc(NC(=O)c5c[nH]cn5)c4)c3)[nH]c12 | 3.77
27 | COc1ccc(NC(=O)c2cc(NC(=O)C3(N)CC3)c(=O)n(Cc3ccc(C(N)=O)cc3)c2)cc1 | 5
28 | COc1cccc(CN2CCC(C(=O)Nc3ccc(-c4nc5ccccc5[nH]4)cc3)CC2)c1 | -0
29 | CN(CCCCCNC(=O)/C=C/c1ccc(Cl)c(Cl)c1)CCc1c[nH]c2ccccc12 | 9.09
30 | C#CCNCc1ccc(-c2cccc(-c3nc4cccc(C)c4[nH]3)c2)cc1 | 3.96
31 | NC(=O)C1CCN(Cc2cccc(-c3cccc(-c4nc5cc(F)ccc5[nH]4)c3)c2)CC1 | 0.98
32 | OCCN1CCN(c2nc(Nc3cccc(F)c3)c3cnn(-c4ccccc4)c3n2)CC1 | 10.9
33 | CC(=O)Nc1ccc(-c2nc3ccc(-c4nc5ccc(NC(C)=O)cc5[nH]4)cc3[nH]2)cc1 | 0.74
34 | Nc1nccc2ccc(-c3ccsc3)cc12 | 10.1
35 | CCOC(=O)C1CCN(CCCNC(=O)/C(=C/C=C/c2cc3cc(Cl)c(Cl)cc3[nH]2)OC)CC1 | 8.46
36 | COc1ccc(C(C(=O)NC2CCN(C[C@H](O)c3ccnc4ccc(OC)cc34)CC2)N2CCN(c3ccc(F)cc3)CC2)cc1 (stereo partly specified) | 0
37 | O=C(C=Cc1ccc(F)cc1)NC1CCC(CCN2CCc3ccc(-c4cnccn4)cc3CC2)CC1 (stereo unspecified) | 6.87
38 | CN(C)CCOc1cc(O)c2c(c1)OC(C)(C)C=C2c1cccs1 | 0.72
39 | Cc1cc(C=C(P(=O)(OC(C)C)OC(C)C)P(=O)(OC(C)C)OC(C)C)c2ccccc2c1O | 4.72
40 | Cc1cc(N[C@@H](Cc2ccccc2)C(=O)NC2CCCC2)nc(Nc2ccccc2)n1 | 7.32
41 | CCCCc1ccc(NC(=O)Nc2cccc(CCNCc3ccccc3)c2)cc1 | 7.75
42 | N#Cc1cncc(-c2nc3c(N4CCC(Cc5ccccc5)CC4)cccc3n2C2CCNC2)c1 (stereo unspecified) | 2.8
43 | O=C(Nc1cc(=O)[nH]c2nc(-c3ccccc3)nn12)C1CCCCC1 | -0
44 | COCCCNC(=O)c1ccc(O)c(-c2cc(Cl)cc(Cl)c2)c1 | 0.74
45 | CC(C)c1ccc(NC(=O)c2ccc(NCCCN(C)Cc3ccccc3)c([N+](=O)[O-])c2)cc1 | 2.96
46 | CN1CCN(CCCN(Cc2cccc(-c3cccc(CNCc4ccc5c(c4)OCO5)c3)c2)C(=O)CCC2CCCC2)CC1 | 10.9

Row | Compound | IFI [%]
47 | CCOc1cc(C)ccc1C1CCN(CCCCNC(=O)c2cnc(-c3ccc(C(F)(F)F)cc3)[nH]2)CC1 | 0.71
48 | COc1ccc(Cn2c(Nc3cccc(C(F)(F)F)c3)nc3cc(C(=O)NCCN4CCCC4)ccc32)cc1Cl | 4.44
49 | O=C(NC1CCN(c2ncc(C(F)(F)F)cc2Cl)CC1)c1cccs1 | -0
50 | CS(=O)(=O)c1ccc(CNCc2ccc(-c3ccc(-c4nc5cc(C(F)(F)F)ccc5[nH]4)cc3)cc2)cc1 | 6.8
51 | COc1ccc(CNCCCCCCNCCc2ccc(Cl)cc2)cc1OC | 4.07
52 | Nc1cccc(CNCc2ccc(-c3ccc(-c4nc5cc(F)ccc5[nH]4)s3)cc2)c1 | 8.57
53 | S=C(Nc1ccc(Cl)cc1)Nc1ccc(Nc2ccccc2)cc1 | 8.15
54 | CCCN(CCC)CCCOc1ccc(C(=O)c2c(-c3ccc(OCCCN(CCC)CCC)cc3)oc3ccc(Cl)cc23)cc1 | 16.9
55 | Cc1ccnc(-n2c(C)cc(C=C3SC(=Nc4ccccc4)N(Cc4ccco4)C3=O)c2C)c1 | 3.65
56 | O=C(/C=C/c1ccc(Cl)c(Cl)c1)NCCCCCN1CCCC(C(=O)Nc2ccc(Cl)cc2)C1 (stereo unspecified) | 12.3
57 | CCNc1cc(C(=O)N[C@@H](Cc2ccccc2)[C@H](O)CN[C@@H](C)c2ccccc2)cc(N2CCCC2=O)c1 | -0
58 | COc1cc2nc(N3CCC(CNC(=O)c4ccc(-c5ccc(O)cc5)cc4)CC3)nc(N)c2cc1OC | 5
59 | Nc1ncc(-c2ccccc2)cc1-c1nc2cc(Cl)c(F)cc2[nH]1 | 11.6
60 | CCC(N)(C#Cc1ccc(-c2c(C)[nH]c(C)c(Br)c2=O)cc1)CC | 0.91
61 | CCCc1cc(NCc2ccncc2)nc(Nc2ccc(F)cc2)n1 | 0
62 | COc1ccc(C(=O)N2CCC3(CC2)C(=O)N(CC(=O)NC2CCCCC2)CN3c2ccccc2)c(OC)c1 | 0
63 | COc1cc(C(=O)Nc2ccc(-c3nc4ccccc4[nH]3)cc2)cc(OC)c1OC | 1.4
64 | O=C(Nc1ccccc1)OCCOc1ccc(CC2SC(=O)NC2=O)cc1 (stereo unspecified) | 2.84
65 | COc1ccc(-c2cccc(NC(=O)c3ccc(Cl)cc3)c2)cc1CN1CCCC1 | 6.8
66 | COc1ccc(NC(=O)[C@H](CC(C)C)Nc2cc(C)nc(NCC3CCCCC3)n2)cc1 | 13.9
67 | N=C(N)NN=Cc1c2ccccc2c(Cl)c2c(Cl)cccc12 | 11.3
68 | COc1ccccc1-c1sccc1C(=O)NC1(c2cc(Cl)cc(Cl)c2)CCCC1 | 3.15
69 | COc1ccc(C2CCN(CCN3CCC(NC(=O)c4cccc(-c5ccncc5)c4)CC3)CC2)c(OC)c1 | 0.79

Row | Compound | IFI [%]
70 | O=c1[nH]nc(-c2ccc(N3CCCC3)c([N+](=O)[O-])c2)c2ccccc12 | 1.42
71 | O=C(NC1CCC(CCN2CCc3ccc(-c4cnccn4)cc3CC2)CC1)c1cccc(-n2cccn2)c1 (stereo unspecified) | 5.3
72 | Fc1cccc(Nc2nc(NCc3ccc(Cl)c(Cl)c3)nc(Nc3cccc(F)c3)n2)c1 | 7.69
73 | Cc1cnc(N2CCN(CC3CCN(C)CC3)CC2)nc1Oc1ccc(-n2ccnc2)cc1 | 0.97
74 | COc1ccc(C=NNc2nc3ccccc3[nH]2)cc1O | -0
75 | COc1ccc(NC(=O)CSc2nc(-c3ccccc3Cl)ns2)cc1OC | 4.76
76 | N#Cc1cccc(Nc2cc(C(F)(F)F)nc(Nc3ccccc3)n2)c1 | 13.6
77 | CCOCCCNc1nc2cc(OC)c(OC)cc2c2nc(-c3ccccc3)nn12 | 0.93
78 | COc1ccc2[nH]c(C)cc(=NN=Cc3ccccc3F)c2c1 | 4.41
79 | CCNc1cc(C(=O)N[C@@H](Cc2ccccc2)[C@H](O)CN[C@@H]2CCc3ccccc32)cc(N2CCCCS2(=O)=O)c1 | 0.72
80 | CN(C)Cc1cccc(-c2ccc(NC(=O)c3ccc4c(=O)n(C5CCCCC5)cnc4c3)cc2)c1 | 7
81 | Cc1cccc(-c2ccc3c(c2)CC(NCc2cccc(-n4ccnc4)c2)C3)c1 (stereo unspecified) | 6.98
82 | Oc1ccc(C=NNC(S)=Nc2cccc3ccccc23)c(O)c1 | 8.82
83 | N#Cc1cccc(CNC(=O)c2cccc(Nc3ccnc4ccc(F)cc34)c2)c1 | 1.52
84 | CC(Cc1ccc(OCCN2CCN(c3ccccc3)CC2)cc1)NCC(O)c1cccc(Cl)c1F (stereo unspecified) | 12
85 | Cc1nc(N)nc(N)c1OCc1ccc(Cl)c(Cl)c1 | 0.75
86 | O=C(Nc1ccc2nc3n(c(=O)c2c1)CCCCC3)C(=O)N1CCN(c2ccc(F)cc2)CC1 | -0
87 | N=C(/N=C(/NCCCCCCN/C(=N/C(=N)NCc1ccc(Cl)c(Cl)c1)N1CCCCC1)N1CCCCC1)NCc1ccc(Cl)c(Cl)c1 | 18.8
88 | O=C(c1cccc(-c2cccc(-c3nc4cc(C(F)(F)F)ccc4[nH]3)c2)c1)N1CCCCC1CN1CCC(O)C1 (stereo unspecified) | 5.36
89 | Cc1ccccc1CNc1ccc2nc(N)nc(N)c2c1 | 2.29
90 | Cc1ccc(C(NC(=O)Cc2ccccc2)c2ccc3cccnc3c2O)cc1 (stereo unspecified) | 7.33
91 | COc1ccc(C2c3cc(OC)c(OC)cc3C(=NO)C2C)cc1OC (stereo unspecified) | 6
